# Data reported in patent publication US20220380436A1 (BOARD OF TRUSTEES OF THE UNIVERSITY OF ILLINOIS, published 2022).
# Changes are numbered by the printed parent chain. Names and notes keep the numbering of the source.
# T1: membrane-tethered HCMV trimer (full-length gH, gL-FLAG, gO-8his) of strain Merlin on Expi293F cells (human cytomegalovirus strain Merlin, UniProt Q6SW67 24-742; F5HCH8 31-278; F5HGP1 32-472)
# T1 construct: also called membrane-localized HCMV trimer; trimer from Merlin; not shown: C-terminal FLAG tag
# T1 sequence 1: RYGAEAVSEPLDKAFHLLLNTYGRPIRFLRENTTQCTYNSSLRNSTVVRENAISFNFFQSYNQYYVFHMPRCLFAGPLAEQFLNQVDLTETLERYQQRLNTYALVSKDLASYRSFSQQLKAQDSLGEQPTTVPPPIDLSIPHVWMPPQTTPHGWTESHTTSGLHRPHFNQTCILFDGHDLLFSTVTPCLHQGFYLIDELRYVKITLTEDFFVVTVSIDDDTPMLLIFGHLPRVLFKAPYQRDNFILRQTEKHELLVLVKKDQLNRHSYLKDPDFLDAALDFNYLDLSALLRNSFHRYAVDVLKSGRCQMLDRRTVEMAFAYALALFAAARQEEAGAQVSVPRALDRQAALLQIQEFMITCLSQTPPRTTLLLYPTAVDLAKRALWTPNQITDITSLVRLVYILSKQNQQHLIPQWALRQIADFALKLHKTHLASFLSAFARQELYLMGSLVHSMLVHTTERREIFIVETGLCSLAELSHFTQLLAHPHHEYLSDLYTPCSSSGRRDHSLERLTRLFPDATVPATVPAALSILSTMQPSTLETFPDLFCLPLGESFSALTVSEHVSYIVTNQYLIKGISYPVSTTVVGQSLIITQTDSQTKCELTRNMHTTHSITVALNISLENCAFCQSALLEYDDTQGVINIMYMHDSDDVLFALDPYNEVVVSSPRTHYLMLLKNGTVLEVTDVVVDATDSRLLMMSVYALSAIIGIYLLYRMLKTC
# T1 sequence 2: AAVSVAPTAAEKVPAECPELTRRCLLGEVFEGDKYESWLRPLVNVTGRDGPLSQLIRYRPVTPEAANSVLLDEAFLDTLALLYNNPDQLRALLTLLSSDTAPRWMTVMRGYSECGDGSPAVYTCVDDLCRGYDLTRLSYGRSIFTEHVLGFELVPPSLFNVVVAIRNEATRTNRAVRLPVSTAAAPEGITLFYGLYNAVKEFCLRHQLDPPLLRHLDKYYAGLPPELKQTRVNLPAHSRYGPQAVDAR
# T1 sequence 3: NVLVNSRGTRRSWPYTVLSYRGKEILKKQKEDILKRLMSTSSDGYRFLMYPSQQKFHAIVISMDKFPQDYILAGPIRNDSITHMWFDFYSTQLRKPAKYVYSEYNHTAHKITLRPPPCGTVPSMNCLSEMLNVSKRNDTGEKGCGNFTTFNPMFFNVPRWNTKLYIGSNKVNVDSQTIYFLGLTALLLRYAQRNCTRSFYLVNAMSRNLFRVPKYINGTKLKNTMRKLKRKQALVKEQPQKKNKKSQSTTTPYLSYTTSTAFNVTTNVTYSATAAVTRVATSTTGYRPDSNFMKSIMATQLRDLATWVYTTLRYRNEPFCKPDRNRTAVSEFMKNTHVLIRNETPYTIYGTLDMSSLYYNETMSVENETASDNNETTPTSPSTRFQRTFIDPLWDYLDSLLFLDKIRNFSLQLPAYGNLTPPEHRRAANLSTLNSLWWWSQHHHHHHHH
# B1: wild-type soluble PDGFRα-Fc (redesigned fusion to human IgG1 Fc) (Fc fusion)
# chain: QLSLPSILPNENEKVVQLNSSFSLRCFGESEVSWQYPMSEEESSDVEIRNEENNSGLFVTVLEVSSASAAHTGLYTCYYNHTQTEENELEGRHIYIYVPDPDVAFVPLGMTDYLVIVEDDDSAIIPCRTTDPETPVTLHNSEGVVPASYDSRQGFNGTFTVGPYICEATVKGKKFQTIPFNVYALKATSELDLEMEALKTVYKSGETIVVTCAVFNNEVVDLQWTYPGEVKGKGITMLEEIKVPSIKLVYTLTVPEATVKDSGDYECAARQATREVKEMKKVTISVHEKGFIEIKPTFSQLEAVNLHEVKHFVVEVRAYPPPRISWLKNNLTLIENLTEITTDVEKIQEIRYRSKLKLIRAKEEDSGHYTIVAQNEDAVKSYTFELLTQVPSSILDLVDDHHGSTGGQTVRCTAEGTPLPDIEWMICKDIKKCNNETSWTILANNVSNIITEIHSRDRSTVEGRVTFAKVEETIAVRCLAKNLLGAENRELKLVAPTLRSEGGGS[human IgG1 Fc left out here]
# notes: also called sPDGFRα-Fc; sPDGFRα-Fc WT
# B2: sPDGFRα-Fc V242K (redesigned IgG1 Fc fusion) (Fc fusion)
# chain: B1 chain with V219K
# notes: also called Soluble PDGFRα-Fc V242K; orthogonal sPDGFRα-Fc V242K
# B3: sPDGFRα-Fc Y206S (redesigned IgG1 Fc fusion) (Fc fusion)
# chain: B1 chain with Y183S
# notes: also called Soluble PDGFRα-Fc Y206S; the Y206S mutant
# B4: legacy sPDGFRα-Fc (PDGFRα ectodomain, IEGRMD linker, human IgG1 upper hinge and Fc) (Fc fusion)
# chain: QLSLPSILPNENEKVVQLNSSFSLRCFGESEVSWQYPMSEEESSDVEIRNEENNSGLFVTVLEVSSASAAHTGLYTCYYNHTQTEENELEGRHIYIYVPDPDVAFVPLGMTDYLVIVEDDDSAIIPCRTTDPETPVTLHNSEGVVPASYDSRQGFNGTFTVGPYICEATVKGKKFQTIPFNVYALKATSELDLEMEALKTVYKSGETIVVTCAVFNNEVVDLQWTYPGEVKGKGITMLEEIKVPSIKLVYTLTVPEATVKDSGDYECAARQATREVKEMKKVTISVHEKGFIEIKPTFSQLEAVNLHEVKHFVVEVRAYPPPRISWLKNNLTLIENLTEITTDVEKIQEIRYRSKLKLIRAKEEDSGHYTIVAQNEDAVKSYTFELLTQVPSSILDLVDDHHGSTGGQTVRCTAEGTPLPDIEWMICKDIKKCNNETSWTILANNVSNIITEIHSRDRSTVEGRVTFAKVEETIAVRCLAKNLLGAENRELKLVAPTLRSEIEGRMD[human IgG1 Fc left out here]
# Target: T1, membrane-tethered HCMV trimer …
# Assay: flow cytometry, sPDGFRα-Fc on Expi293F cells expressing the trimer
row,Binder,binding result
1,B1,binds
2,B2,binds
3,B3,binds
4,B4,binds
